Assay [1] concerns RAW-Dual. The assay is described as follows: NF-kB SEAP reporter activity, fold change vs agonist alone; cytotoxicity flag (confluency mask): not cytotoxic; higher = enhanced NF-kB activity. The essentials: (§1)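 Supernatant from RAW-Dual macrophages was read after 20 hours for IRF by QuantiLuc luminescence and for NF-κB by QuantiBlue absorbance at 620 nm. The cells (50,000 cells/well in DMEM, 384-well plates, 37 °C, 5% CO2) had received 50 nL of library stock by pin tool and, 1 h later, a PRR agonist. Reporter activity is expressed relative to agonist-alone wells as fold change, and wells were flagged cytotoxic if IncuCyte confluency was under 70% of agonist controls in both mask sets.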

The test system of assay [2] is RAW-Dual. The assay is described as follows: NF-kB SEAP reporter activity, fold change vs agonist alone; higher = enhanced NF-kB activity. Conditions: library stock concentration (final ~1000-fold dilution): 10 mM, cytotoxicity flag (confluency mask): not cytotoxic. The method, boiled down: as §1
[3] abbreviates: agonist: ODN 1826 (TLR9) 0.5 ug/mL.
[4] abbreviates: agonist: Pam2CSK4 (TLR2/6) 0.1 ug/mL.
The mark [5] stands for this setting: agonist: Pam3CSK4 (TLR2/1) 0.1 ug/mL.

SMILES strings stand for the structures. The full ranking holds about 2,900 compounds; the median of “NF-kB SEAP reporter activity, fold change vs agonist alone” is about 0.99, and the highest 2% start at about 2.6. The list shows a part of the results.

In the case of `O=c1cc(-c2ccc(O)cc2)oc2cccc(O)c12` (library stock concentration (final ~1000-fold dilution): 10 mM), the “NF-kB SEAP reporter activity” value in the assay with RAW-Dual [1] (agonist: LPS (TLR4) 0.1 ug/mL) came to 1.55; with RAW-Dual [1] (setting [3]), 1.15; in the assay on RAW-Dual [1] (setting [4]), 1.09; in the assay with RAW-Dual [1] (setting [5]), 1.82.
In the case of `O=c1cc(-c2ccc(O)cc2)oc2cccc(O)c12`, the “NF-kB SEAP reporter activity” value in the assay on RAW-Dual [2] (agonist: Imiquimod (TLR7) […]) was 1.07; in the assay on RAW-Dual [2] (agonist: MPLA (TLR4) […]), 1.37.
Turning to `CC(C)c1cc(-c2ccc(F)c3ccccc23)nc(N)n1` (library stock concentration (final ~1000-fold dilution): 10 mM), the “NF-kB SEAP reporter activity” value worked out at 1.32 in the assay with RAW-Dual [1] (agonist: LPS (TLR4) 0.1 ug/mL), 1.15 in the assay with RAW-Dual [1] (setting [3]), 1.15 in the assay on RAW-Dual [1] (setting [4]) and 1.38 in the assay with RAW-Dual [1] (setting [5]).
Turning to `CC(C)c1cc(-c2ccc(F)c3ccccc23)nc(N)n1`, the “NF-kB SEAP reporter activity” value in the assay with RAW-Dual [2] (agonist: Imiquimod (TLR7) […]) was determined as 1.16; with RAW-Dual [2] (agonist: MPLA (TLR4) […]) it was 0.967.
With `Cc1cc(C)c(/C=C2\C(=O)Nc3ccccc32)[nH]1`, the “NF-kB SEAP reporter activity” value is 0.587 with RAW-Dual [2] (agonist: Imiquimod (TLR7) […]) and 0.685 in the assay on RAW-Dual [2] (agonist: MPLA (TLR4) […]).
On to `Cc1cc(C)c(/C=C2\C(=O)Nc3ccccc32)[nH]1` (library stock concentration (final ~1000-fold dilution): 10 mM), for which the “NF-kB SEAP reporter activity” value came to 0.837 in the assay on RAW-Dual [1] (agonist: LPS (TLR4) 0.1 ug/mL), 0.52 in the assay on RAW-Dual [1] (setting [3]), 0.562 in the assay with RAW-Dual [1] (setting [4]) and 0.426 with RAW-Dual [1] (setting [5]).
As to `CN1CCC(=C2c3ccccc3CC(=O)c3sccc32)CC1.O=C(O)/C=C/C(=O)O`, the “NF-kB SEAP reporter activity” value was determined as 1.02 in the assay with RAW-Dual [2] (agonist: Imiquimod (TLR7) […]) and 1.1 in the assay on RAW-Dual [2] (agonist: MPLA (TLR4) […]).
Turning to `CN1CCC(=C2c3ccccc3CC(=O)c3sccc32)CC1.O=C(O)/C=C/C(=O)O` (library stock concentration (final ~1000-fold dilution): 10 mM), the “NF-kB SEAP reporter activity” value in the assay with RAW-Dual [1] (agonist: LPS (TLR4) 0.1 ug/mL) stood at 1.23; with RAW-Dual [1] (setting [3]) it was 0.501; in the assay on RAW-Dual [1] (setting [4]) it was 1.01; with RAW-Dual [1] (setting [5]) it was 1.01.
Take `O=c1cc(O)c(Cl)c[nH]1`: the “NF-kB SEAP reporter activity” value in the assay on RAW-Dual [2] (agonist: Imiquimod (TLR7) […]) turned out to be 1.07; in the assay with RAW-Dual [2] (agonist: MPLA (TLR4) […]) it was 1.01.
As to `O=c1cc(O)c(Cl)c[nH]1` (library stock concentration (final ~1000-fold dilution): 10 mM), the “NF-kB SEAP reporter activity” value in the assay with RAW-Dual [1] (agonist: LPS (TLR4) 0.1 ug/mL) turned out to be 1; in the assay on RAW-Dual [1] (setting [3]) it was 1.06; with RAW-Dual [1] (setting [4]), 0.973; in the assay with RAW-Dual [1] (setting [5]), 1.03.
Consider `COc1ccccc1OCCN.Cl`, for which the entries for the “NF-kB SEAP reporter activity” value in the assay with RAW-Dual [2] (agonist: Imiquimod (TLR7) […]) and in the assay on RAW-Dual [2] (agonist: MPLA (TLR4) […]) were 0.984 and 1.08, respectively.
Take `COc1ccccc1OCCN.Cl` (library stock concentration (final ~1000-fold dilution): 10 mM): the “NF-kB SEAP reporter activity” value in the assay on RAW-Dual [1] (agonist: LPS (TLR4) 0.1 ug/mL) worked out at 0.978; in the assay with RAW-Dual [1] (setting [3]), 0.988; in the assay with RAW-Dual [1] (setting [4]) it was 0.94; in the assay on RAW-Dual [1] (setting [5]), 1.13.
Consider `N#Cc1cc(-c2n[nH]c(-c3ccncc3)n2)ccn1`, for which the “NF-kB SEAP reporter activity” value in the assay on RAW-Dual [2] (agonist: Imiquimod (TLR7) […]) and in the assay on RAW-Dual [2] (agonist: MPLA (TLR4) […]) was 1.03 each time.
Take `N#Cc1cc(-c2n[nH]c(-c3ccncc3)n2)ccn1` (library stock concentration (final ~1000-fold dilution): 10 mM): the “NF-kB SEAP reporter activity” value with RAW-Dual [1] (agonist: LPS (TLR4) 0.1 ug/mL) was 1.09; in the assay with RAW-Dual [1] (setting [3]), 1.05; in the assay with RAW-Dual [1] (setting [4]) it was 1.12; with RAW-Dual [1] (setting [5]), 1.19.

(Values after the supplement of paper PMC10037445.)
